Results published in the supplement of paper PMC10126150.
Values marked as one replicate rest on one cluster of the flow cell; about a third of the high ones do not repeat.

Tested on: ATP
Test: switch fluorescence ratio, 500 uM ATP over buffer (Cy3 cluster intensity, sum of 5 cycles each) (fold (ratio)); higher = stronger signal-on switching upon ATP binding; sequences stand for … in TCGTCGGCAGCGTCAGATGTGTATAAGAGACAGTTTTTTTTTTTTTTTTTTTTTTTTT…TC
Conditions: aptamer strand: ATP DNA aptamer (quencher-CACCTGGGGGAGTATTGCGGAGGAAGG + anchor), 100 nM annealed; ATP concentration: 500 uM; one replicate
Procedure, shortened: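 Switching-strand clusters labelled with Cy3 on a modified Illumina MiSeq flow-cell were annealed to 100 nM quencher-labelled ATP aptamer, imaged in selection buffer, and re-imaged after 15 min with 500 uM ATP at 22 °C. This was done over five cycles with NaOH stripping and re-annealing in between. The fluorescence ratio is summed target-cycle over summed buffer-cycle Cy3 intensity per cluster, averaged per switch-domain sequence, excluding clusters outside 100-1000 RFU.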
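Also: ATP exposure 15 min at 22 °C before imaging.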

Sequence	switch fluorescence ratio
ACAAAGAGGG	0.983
TAAGTACGCT	1.24
TCTAACATGG	1.01
AGCCACTCTA	1.02
GTTGTTAGCT	1.01
GCAACTAGCA	1.07
GGGACAAAAG	0.994
TGGCGATTAG	0.985
AGCACCCGGA	1.05
CACTGTGTTT	1
GCTTCCCATG	1.05
GAACTTAACA	1.07
TTTCGTGGCC	1.07
CGGACTCAAG	1.04
GTGTACGGAT	1.02
TCTTAACGTA	1.08
CGGGGGTGCG	0.986
CTCAACGGAA	1.25
TGGGCGTAGT	1.01
ATTCTGCTCA	0.988
TTACCTCGGA	1.05
ACGATGAGAA	0.996
AAGCTCTAGC	1.06
AACATACGTT	1.1
ATCATACATA	1.03
AGTCAGGATA	1

Sequence	switch fluorescence ratio
AGAGTTTCCG	1.06
TAGACCAACT	1.11
CGGCTATGTA	1.01
AAGATGTCA	1.01
TGAGGAGCGT	0.998
AATCTACGAT	1.04
ACATATTGG	1.01
ACCTTCGTCT	1.24
TTCGTTAAGT	1.02
GCGGACAGGT	1.08
AACTATTACC	1.07
GTTTATTGTG	1.01
ACCCTACTAA	1.26
CACAGCATGT	1.02
ATCAATATGG	0.972
GAAATCTATA	1.02
TGCAAAGGTA	0.986
AGTCATTTTT	1
CAAGGTCAAT	1.04
TGGAATACCC	1.22
TGTAAGATTT	0.986
CATACTCTAC	1.31
GTCACTAGGC	1.01
GCTGTTATTT	0.964
TTTAGAGGTT	0.978
ACAATTGCCA	0.972

Sequence	switch fluorescence ratio
GTAAGTGCGG	1.05
AAGCGGCTGA	1.06
GTAGAAGGAA	1.01
ACGGCAACAG	1.54
TTATGCGTGG	1.05
CGGGCGCCGT	1.03
ACCTCGTTAA	0.992
GGTCCAACCT	1.2
ACGCAAAGTC	2.14
GGGAGGCATT	0.939
AGCGGCAGGG	1.02
CAGATGAACA	0.994
GGATTTGTCT	0.975
GAGCAGTTGG	1.03
GTTTCACTTC	0.96
GGGGCTGAAC	1.04
TCAGAGGCCA	1.02
TTATTCTTAG	1.01
CTAGCTATTG	1.06
GAATAGGGAA	0.97
AATGGCTAGT	1.04
AACAGTCAGA	1.03
ATTCCTAGCG	1.08
GGTTGATGAA	0.969
CATAGTACTT	1.04
CGCGACCGCT	1.09

Sequence	switch fluorescence ratio
GAAGCCTCCT	1.02
CTATGATGCT	1
GAATTACACA	1.02
AGATGGCGA	1
TGAATTTTGC	1.21
AGGTCCTTCG	1.12
CCTATCCACC	1.17
CTTCCCGGAT	1.29
TTCCAACCA	1.03
TCGTCTGCTG	0.98
GAGTTTCAAA	1.04
CCAAGGGGTA	1.02
CCTCGAAGGG	1.01
GTGCCTGCAG	1.04
GATTATACTA	0.968
AGTTTGCG	0.978
ATCAAGTTAA	1.01
ACAGATTACT	1.14
TCGGTATTCT	1.05
GAATAGCCGC	1.05
ATTAACGATG	1
GAACCCTGTT	0.991
GAGTGGCTGT	0.978
CCAGCTGAAG	1.08
GTAGGATGCA	1.01
CGTGGCTTGT	1.04

Sequence	switch fluorescence ratio
TGTTGTAGTT	0.987
AGTATGGGG	1.09
AAATTAGAGA	0.991
GCATATCATC	0.981
CCCCAATTAG	1.23
GTATATTGGT	0.984
TAGGGGTTTA	0.977
CATGTAAAAA	1.03
TGTCATTGAG	0.991
CACCTACGGA	1.3
AAGCAATTTA	1.18
AGTTGTGGCT	0.974
TCGATTGTCC	1
GCTTTCTAGA	0.988
GTCGGACAGG	1.05
AGAGTGTCGG	0.984
TCCTGTATTT	0.967
GGAGTATATG	1.02
CGGATCAACC	1.02
CGTGAGACAC	1.02
CGAATGAGCC	0.985
GAGCAAACGG	1.21
TGCATATTTC	1.05
AAGGACAGTT	1
AACTTGTCCA	0.986
GCCTGTATGC	0.952

Sequence	switch fluorescence ratio
TACGGAGACC	1.13
GCCGGAGCT	1.1
GTGGAGGATG	1.04
AAGTAACGGG	1.03
TACCAGAAGT	0.991
TGAAGAGCAT	1.04
ACGGGCTGTT	0.967
TGGACACTAC	1.3
TAAACCTTAT	1.48
AGCGTTGGGT	1.03
GTATCTATAA	1.03
CAATTGTCCG	1.01
GTTATAATG	0.998
TACGACGCCT	1.96
CATGAACCTC	1
GTTGCTTCGG	0.987
CGTAGGTCGA	1.03
CCGCGCTTCT	1.52
TGTTGCATTT	0.994
CTGAGCGGGG	1.04
CCACATCGTC	1.01
TGACAATGCA	1.03
TCTGATATTC	1.01
TTCGTTCGG	1
TCGCACGGGC	1.09
ATACTGATGC	1.08

Sequence	switch fluorescence ratio
CATGCCCGGG	1.02
TTACCCTGTG	1.06
ACGGTTATCC	1.02
CAATTTCGCA	1.13
ATATCAGTCT	0.996
GTGCGGCT	0.978
TTACAATATC	1.13
TGAACTTATT	0.964
ATGAGGCGGA	0.943
AACGGGTGCT	0.999
CCAGGTGGGC	1.38
CAGCTATTCG	1.05
TGATATACCA	1.05
CGGTAAAATC	1.49
ATTAATGGTT	0.947
AGAGTCTCC	1.02
CGCTAAAGGA	1.03
TTTTATCTA	0.998
GGCTTCCTT	1.17
AGCACGAAGA	1.05
CCACGACCT	1.27
TTGTTATGCT	1.02
AGGGAGAAAG	0.974
TTTACAACGA	1.04
TGCTGCGTA	0.955
GTCCAGGCCT	1.02

Sequence	switch fluorescence ratio
GTTTGCAATA	1.52
CGTACTCAAG	1.02
GTTGTTGGTA	0.986
TCTTGTGCA	1.01
AGGGGTCCCC	0.993
TCAATGTCTT	0.955
TTGGTCAGCT	0.987
AGCATAGGGA	1
GGTTCCCGCT	1.09
TTCCAAACCT	1.09
TGATGTCTCC	1.08
CATCCTCCCG	1.64
AAATTATTG	0.955
TCATTATCTT	1.01
GAGTGTGGTA	1.01
CCGTGTTTAG	1.14
TTTAGAAT	0.985
AGATTTCCCG	1.04
TGGGGGACAA	0.955
